Data reported in US20240010697A1 (CYTIMM THERAPEUTICS, published 2024).

Legend:
[1] = target: T1, IL-2Rα in a human Fc fusion protein format (ACROBiosystems) (human, UniProt P01589 22-213, limits assumed); test: Octet QKe (BLI), IL-2Rα-Fc on anti-human IgG Fc (AHC) sensors, 1:1 fit; analyte series 100, 50, 25, 12.5 (unit inferred)
T1 construct: Bought reagent; also called CD25; not shown: human Fc (captured by anti-human IgG Fc)
T1 sequence (looked up): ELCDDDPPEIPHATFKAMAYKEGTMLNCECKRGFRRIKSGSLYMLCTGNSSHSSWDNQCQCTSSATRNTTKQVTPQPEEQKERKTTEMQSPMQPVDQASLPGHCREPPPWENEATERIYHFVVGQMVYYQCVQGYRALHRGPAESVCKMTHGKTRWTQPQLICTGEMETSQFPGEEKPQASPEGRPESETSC
From the text: (§1) IL-2Rα or IL-2Rβ in a human Fc fusion protein format (ACROBiosystems) were captured on anti-human IgG Fc capture (AHC) sensors. […] Dissociation was detected following transfer of sensors into wells containing buffer alone. Data were collected and analyzed by the Octet User Software. For analysis of the kinetics constants, a 1:1 curve fitting model was used.

[2] = target: T1, IL-2Rα in a human Fc fusion protein …; test: BLI (Octet QKe), IL-2Rα-Fc captured on AHC sensors, 1:1 fit
From the text: as §1

[3] = target: T1, IL-2Rα in a human Fc fusion protein …; test: Octet QKe (BLI), IL-2Rα-Fc on anti-human IgG Fc (AHC) sensors, 1:1 fit; analyte series 400, 200, 100 (unit inferred)
From the text: as §1

- Kd [1]: 31.2 nM
- koff [1]: 0.0125 s⁻¹
- kon [1]: 400000 M⁻¹ s⁻¹
B1: ACT5200, IL-2 mutein Y31C (ligand)
chain: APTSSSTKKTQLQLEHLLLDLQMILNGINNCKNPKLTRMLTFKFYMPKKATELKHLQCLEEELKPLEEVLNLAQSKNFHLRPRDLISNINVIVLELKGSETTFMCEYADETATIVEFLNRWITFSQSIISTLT
notes: Not PEGylated; rhIL-2 (C125S) background; not shown: His-Tag

- Kd [2]: 24.7 nM
- koff [2]: 0.0152 s⁻¹
- kon [2]: 615000 M⁻¹ s⁻¹
- Kd [3]: 79.6 nM
- koff [3]: 0.0441 s⁻¹
- kon [3]: 554000 M⁻¹ s⁻¹
B2: ACT5201, IL-2 mutein Y31C (PEG20K) (ligand)
chain: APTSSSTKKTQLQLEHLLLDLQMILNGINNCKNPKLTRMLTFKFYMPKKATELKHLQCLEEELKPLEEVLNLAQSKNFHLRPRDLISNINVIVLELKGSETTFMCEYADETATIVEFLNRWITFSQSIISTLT
modifications: maleimide-PEG 20K on Cys 31
notes: not shown: His-Tag

- Kd [2]: 188 nM
- koff [2]: 0.101 s⁻¹
- kon [2]: 538000 M⁻¹ s⁻¹
B3: IL-2 mutein N29C - PEG20 (ligand)
chain: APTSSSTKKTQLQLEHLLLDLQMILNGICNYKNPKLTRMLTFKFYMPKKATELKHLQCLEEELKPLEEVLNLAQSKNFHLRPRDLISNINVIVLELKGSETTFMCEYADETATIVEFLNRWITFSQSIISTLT
modifications: maleimide-PEG 20K on Cys 29
notes: not shown: His-Tag

Each block holds one binder with its values, some of them ahead of it.
